In PubChem BioAssay AID1460 (National Center for Advancing Translational Sciences (NCATS), 2008):
“And” between values parts separate entries of the source, which are not always exact repeats. Equal entries are not always repeated. About 5,800 (2.1%) of roughly 270,000 compounds were called active. Roughly 16% stayed inconclusive and do not appear here. Calls follow the shape of the dose curve; as a rule, active = well fitted inhibition curve with a large enough effect; inconclusive = small, poorly fitted or top-dose-only effect; inactive = flat fitted curve, though single readings scatter. Only a part is listed here, and it is no random draw. More than one record can exist for a structure, and the calls need not agree.

biological target: Microtubule-associated protein tau (Homo sapiens) (UniProt P10636); assay: qHTS for Inhibitors of Tau Fibril Formation, Thioflavin T Binding; settings: recombinant tau K18 P301L, heparin-induced fibrillization, ThT fluorescence; series mostly up to 57.4 µM; activity, negative = inhibition: at the top concentration; also: nearly all actives have a fitted effect of over 55% in size
Sequence of UniProt P10636 (P10636 whole entry, looked up): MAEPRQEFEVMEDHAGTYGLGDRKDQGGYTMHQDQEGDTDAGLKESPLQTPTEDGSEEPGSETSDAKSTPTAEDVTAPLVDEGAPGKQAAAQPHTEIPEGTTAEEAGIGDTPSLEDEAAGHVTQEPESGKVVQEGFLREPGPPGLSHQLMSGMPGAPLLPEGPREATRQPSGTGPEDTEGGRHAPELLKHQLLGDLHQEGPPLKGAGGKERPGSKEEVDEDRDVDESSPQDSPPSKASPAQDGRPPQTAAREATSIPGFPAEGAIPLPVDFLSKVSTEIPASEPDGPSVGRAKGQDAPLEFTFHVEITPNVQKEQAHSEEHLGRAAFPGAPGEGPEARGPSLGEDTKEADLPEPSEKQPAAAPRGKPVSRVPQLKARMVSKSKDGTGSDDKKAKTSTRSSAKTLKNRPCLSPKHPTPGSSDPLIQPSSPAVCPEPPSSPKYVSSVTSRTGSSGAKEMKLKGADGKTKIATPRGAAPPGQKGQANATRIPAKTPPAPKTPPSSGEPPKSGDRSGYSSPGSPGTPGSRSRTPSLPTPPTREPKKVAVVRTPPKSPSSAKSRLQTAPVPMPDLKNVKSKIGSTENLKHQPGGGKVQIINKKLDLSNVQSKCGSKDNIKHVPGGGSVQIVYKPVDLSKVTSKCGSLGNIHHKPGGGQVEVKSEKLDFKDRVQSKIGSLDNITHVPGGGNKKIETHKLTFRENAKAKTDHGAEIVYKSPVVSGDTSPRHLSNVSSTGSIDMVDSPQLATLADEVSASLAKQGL
Summary of the method: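 Fibril formation assay: tau K18 P301L at 15 uM with trace Alexa 594 label, heparin inducer 20 uM, pH 7 sodium acetate buffer, 37 C for 6 hr; endpoint ThT signal.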
% is scaled to controls: 0 for no effect and ±100 for the full control effect; potency is read from the fitted curve at half-maximal effect.

activity, negative = inhibition, inactive:
COc1ccc(CCN2CCC(Nc3nc4ccccc4n3Cc3ccc(F)cc3)CC2)cc1 -20.4%
COC(=O)C1=C(C(=O)OC)[C@@H]2N(C)c3ccc(OC)cc3[C@@]23C[C@@H](C(=O)OC)N(S(=O)(=O)c2ccc([N+](=O)[O-])cc2)C3=N1 4.42%
C=C1CC[C@H](O)C/C1=C/C=C1\CCC[C@]2(C)[C@@H]([C@H](C)CCCC(C)(C)O)CC[C@@H]12 -10.1%
CCn1c(SCC(=O)N/N=C/C=C/c2ccccc2[N+](=O)[O-])nnc1-c1ccccc1 0.802%
CCCCNC(=O)C(c1ccc(OCC(=O)OC)c(C(=O)OC)c1)N(CCOC)C(=O)CCCCCN1C(=O)NC(c2ccc(-c3ccccc3)cc2)C(C(=O)OCc2ccccc2)=C1C (configuration not stated) -7.12%
CCC(C)C(=O)O[C@H]1C[C@@H](C)C=C2C=C[C@H](C)[C@H](CC[C@@H]3C[C@@H](O)CC(=O)O3)C21 (some centres not stated) -7.23%
COC(=O)[C@@]1(Cc2ccc(F)cc2)[C@H]2c3cc(C(=O)N(C)C)n(Cc4ccccc4)c3C[C@H]2CN1C(=O)c1ccccc1 -11%
CC1(C)C(O)CC[C@]2(C)C1CC[C@@]1(C)C2C(=O)C=C2[C@@H]3C[C@@](C)(C(=O)O)CC[C@@]3(C)CCC21C (some centres not stated) -8.37%
COC(=O)CCC(=O)OC1(C)C(=O)C2=CN(CC(C)C)C(c3ccc(OC)cc3)=CC2=C(Br)C1=O (configuration not stated) -5.88% [at 11.5 µM]
COC(=O)C1=C(C)N(CCc2cc(OC)c(OC)c(OC)c2)C(=O)N[C@H]1c1ccc(Br)cc1 -3.53%
CC1(OC(=O)CCc2ccccc2)C(=O)C=C2C=C(c3ccc(C#N)cc3)N(C(CO)CO)C=C2C1=O (configuration not stated) -18% [at 11.5 µM]
Cc1ccc(OCC(O)Cn2c(=N)n(CCN3CCCCC3)c3ccccc32)cc1 (configuration not stated) -9%
CC1=C(C#N)C(NC(=O)c2cccc(Cl)c2)(C(F)(F)F)C(=O)N1 (configuration not stated) -1.44%
CO[C@@H]1COC(=O)C/C=C\[C@H](C)[C@@H](NS(=O)(=O)c2ccc(C)cc2)COC(=O)C/C=C\[C@@H]1C -5.14% [at 11.5 µM] and -10.7% [at 11.5 µM]
CC(=O)OCC1OC(Sc2cccc3cccnc23)C(OC(C)=O)C(OC(C)=O)C1OC(C)=O (configuration not stated) -9.57%
CCN1CCN(c2cc3c(cc2F)c(=O)c(C(=O)O)cn3C2CC2)CC1 -2.69%
Cc1ccc(CSc2nnc(CCNC(=O)OC(C)(C)C)o2)cc1 -6.51%
CC1CCC2C(=O)OC(Cc3ccccc3)CN2C1c1ccc(Br)cc1 (configuration not stated) -14.4% [at 11.5 µM]
C#C[C@@]1(O)CCC2C3CCc4cc(O)ccc4C3CC[C@@]21C (some centres not stated) -15.4%
CCc1ccc(NC(=O)CSc2nnc(CC)c(CC)n2)cc1 -7.77%
C[C@]12CC[C@@H]3c4ccc(O)cc4CC[C@H]3[C@@H]1CC[C@H]2O -7.27%
Cc1ccc(C(=O)Nc2cnc3ccccn3c2=O)cc1 -22.1%
CCC1=C(OC(=O)N(CC)CC)N2C(=O)OC(=NCCc3c[nH]c4ccccc34)[C@]2(Cc2ccccc2)[C@H]2C1=CC[C@H]1C(=O)N(C)C(=O)[C@H]12 -12.6%
COC(=O)c1ccc(C23CC4(C2)[C@H](CN(C)[C@@H]4c2ccccc2)C3c2ccc(Cl)nc2)cc1 (some centres not stated) -13.1%
O=C(NCc1ccccc1)c1ccc(-c2ccccc2C(F)(F)F)o1 -12.8%
CN(C)C1C(=O)C(C(N)=O)=C(O)[C@@]2(O)C(=O)C3=C(O)c4c(O)ccc(Cl)c4C(O)[C@H]3C[C@@H]12 (some centres not stated) -5.89%
Cc1ccc2oc(=O)c3cnn(CC(=O)N4CCN(c5ccccc5)CC4)c3c2c1 -15.4%
C[C@@H]1C=C[C@](Cc2ccccc2)(C(=O)NCCc2c[nH]c3ccccc23)N1C(=O)c1ccccc1 -14.3%
NC(=O)C1=C[C@H](c2csc3ccccc23)C[C@H](OCc2ccc(CO)cc2)O1 -8.4%
CC(/C=C/c1cccc(Oc2ccc(F)cc2)c1)N(O)C(N)=O (configuration not stated) -21.1%
O=C1OCCN1/N=C/c1ccc([N+](=O)[O-])o1 -13.8%
CCOC(=O)/C(C#N)=C/C1=C(N2CCOCC2)CC(C)(C)OC1 -16.1%
Cc1cc(C)c[n+](-c2nc3ccccc3nc2C(=C=[N-])C#N)c1 -4.67%
CN1C=CC=C/C1=C1/SC(=S)N(Cc2ccccc2)C1=O 6.2%
Cn1c(SCC(=O)N/N=C/C=C\c2ccco2)nc2ccccc21 -2.13%
COc1ccc(CN2C=C3C(=O)C(C)(OC(=O)C4CCCC4)C(=O)C=C3C=C2c2ccsc2)cc1 (configuration not stated) -8.5% [at 11.5 µM]
O=C1OCCN1C(=O)[C@H]1[C@H](c2ccc(F)cc2)C(c2ccc(F)cc2)=NN1c1ccc(Br)cc1 1.44%
CNC(=O)c1cc(Nc2nnc(-c3ccc(O)cc3)c3ccccc23)ccc1OC -10%
Cc1ccc(-c2noc(CSc3nnc(Cc4ccccc4)n3-c3cccc(C)c3)n2)cc1 -15.3%
Cc1cncn1CCc1nc2c3ccccc3nc(SCC(=O)Nc3cccc(Cl)c3)n2n1 1.11%
CCCCCc1c2c(cc(O)c1C(=O)O)OC(=O)c1c(cc(OC)cc1C(=O)CCCC)O2 -7.2%
OCCN1CCN(CC/C=C2/c3ccccc3Sc3ccc(C(F)(F)F)cc32)CC1 -15.6%
N#C/C(=C\C=C\c1ccccc1)C(=O)Nc1ccccc1 -7.86%
CCN(CC)c1ccc(N2C(=O)/C(=C\c3cccs3)SC2=S)cc1 -15.9%
O=C(O)CN1C(=O)c2cccc3cccc(c23)C1=O -0.32%
Cc1c(C(=O)N(Cc2ccc(N(C)C)cc2)C2CCS(=O)(=O)C2)oc2ccccc12 (configuration not stated) -7.63%
C=CCOC(=O)NC(c1ccc(F)c(F)c1)C(C(=O)COC)C(=O)OC (configuration not stated) 3.51%
NNCCc1ccccc1 -16.3%

Potency, active:
COc1ccc(/C=C/C(=O)c2ccc(OC)cc2O)cc1 5.01 µM
CC(=O)N1CCN(c2ccc(NCc3ccc(F)cc3)cc2)CC1 25.1 µM
C/C(CCC1CC(C)OC1=O)=N/Nc1nc(-c2ccccc2)cs1 (configuration not stated) 28.2 µM
C=CCNC(=S)N1CCN(c2ccc([N+](=O)[O-])cc2)CC1 12.6 µM
COc1ccc(/C=C2\CCC/C(=C\C=N\N(C)C)C2=O)cc1 2.51 µM
CC(C)N1CCc2c(sc(NC(=O)c3cc4cc([N+](=O)[O-])ccc4s3)c2C(N)=O)C1 3.98 µM
COc1cccc(-c2nc(NC(C)C)c3ccccc3n2)c1O 17.8 µM
CS(=O)(=O)c1ccc(C(=O)NCCN2C(=O)S/C(=C\c3cccnc3)C2=O)cc1[N+](=O)[O-] 15.8 µM
NC(=O)[C@@H]1[C@@H]2C(=O)N(c3ccc(F)cc3)C(=O)[C@@H]2[C@H]2C=Cc3ccccc3N21 14.1 µM
N/N=C(/Cc1nc2ccccc2[nH]1)c1ccc([N+](=O)[O-])cc1 5.01 µM
Cc1ccc2c(c1)C1C=CCC1C(C(=O)O)N2 (configuration not stated) 14.1 µM
CC1=C(C#N)C(=O)NC(=O)/C1=C/c1ccc(-c2ccc(S(N)(=O)=O)cc2)o1 15.8 µM
CC(C)CN1C(=O)/C(=C(/C#N)C(=O)NC2CCCCC2)c2ccccc21 17.8 µM
CC(=O)NCc1ccc(S(=O)(=O)NC(C(=O)O)C(C)C)cc1 (configuration not stated) 25.1 µM
O=c1c(O)c(-c2ccc(O)c(O)c2)oc2c(OC3OC(CO)C(O)C(O)C3O)c(O)cc(O)c12 (configuration not stated) 14.1 µM
CCOC(=O)c1sc(=S)n2c1[nH]c(=O)c1ccc(C(=O)OC)cc12 7.08 µM
O=C(NNc1cc(Br)c(O)c(Br)c1)c1ccccc1 5.01 µM
COc1cccc(C(=O)Nc2ccc3nc(N4CCOCC4)cc(C)c3c2)c1 5.01 µM
COc1cccc(N2C(=O)CC(Nc3ccc(N4CCOCC4)cc3)C2=O)c1 (configuration not stated) 14.1 µM
O=C1/C(=C/c2ccc(C(=O)O)cc2)CCC/C1=C\c1ccc(C(=O)O)cc1 10 µM
O=C(N/N=C(\CC(=O)c1cccs1)C(F)(F)F)c1ccncc1 14.1 µM
O=C1c2cccc3c(Nc4ccccc4Cl)c([N+](=O)[O-])cc(c23)C(=O)N1CCO 11.2 µM
O=C(O)c1ccc(Cl)c2c1C1C=CCC1C(c1ccccn1)N2 (configuration not stated) 14.1 µM
Cc1ccc2[nH]c(C)c(/C=N/Nc3nc4ccccc4s3)c2c1 14.1 µM
O=C1N/C(=N\S(=O)(=O)Cc2ccccc2)S/C1=C/c1cc([N+](=O)[O-])ccc1O 5.01 µM
O=C(NNc1c2ccccc2nc2ccccc12)c1ccccc1O 2.24 µM
Nc1nc(-c2ccccc2)c(N=Nc2ccccc2Cl)s1 5.01 µM
COc1ccc2nc(Nc3sc4c(c3C(N)=O)CCCC4)sc2c1 7.08 µM
Cc1ccc(C(=O)Nc2ccc(N3CCCC3)cc2)c(C)c1 14.1 µM
O=C(/C=C/c1ccco1)NC(=S)Nc1ccc(Cl)cn1 22.4 µM
Cc1c(N=C2C=CC(=O)c3ccccc32)c(=O)n(-c2ccccc2)n1C 2.24 µM
N#C/C(=C\c1coc2ccc(O)cc2c1=O)C(=O)Nc1nc2ccccc2s1 17.8 µM
Cc1cc(C)c2[nH]c(=O)c(C(c3nnnn3CC3CCCO3)N3CCCC(C)C3)cc2c1 (configuration not stated) 31.6 µM

Potency, inactive:
CNC(=O)c1cc2c(cn1)[nH]c1ccccc12
CCCNC(C)C(=O)Nc1ccccc1C (configuration not stated)
FC(F)(F)c1ccccc1-n1ccnc1
COc1cc2c(cc1OC)-c1cc(=Nc3c(C)cc(C)cc3C)n(C)c(=O)n1CC2
CC(C)=CCC/C(C)=C/CC/C(C)=C/CSCC(=O)O
O=[N+]([O-])c1cccc2cn[nH]c12
